# Measured values as given in ChEMBL document CHEMBL4888484, “Replenishing the malaria drug discovery pipeline: Screening and hit evaluation of the MMV Hit Generation Library 1 (HGL1) against asexual blood stage Plasmodium falciparum ,using a nano luciferase reporter read-out” (2022).
# In all, about 150,000 compounds went through this assay and about 540 (0.36%) showed an effect of 50% or more. The list shows a part of the results.
# System: Plasmodium falciparum
# Assay: Primary screen in NF54 nanoGlo assay, in single point, at 2uM, 72h; a lower Z score goes with more inhibition
# Assay type: functional, Erythrocyte
# Settings: timepoint 72 hour
Compound,% Inhibition,Z score
O=C(CCC1CCN(Cc2nc3ccccc3s2)CC1)NC[C@H]1CCCO1,-15%,1.36
CN(c1nc(CN(C)[C@H]2CCN(S(C)(=O)=O)C2)cs1)C1CC1,-4%,0.78
COc1ccc(OC)c2nc(N3CCCC3)c(CN(Cc3ccc4c(c3)OCO4)C(=O)c3[nH]nc4c3CCCC4)cc12,6%,-1.15
CC(C)(C)C(=O)N1CCC(OC2CCN(Cc3ccccc3)CC2)CC1,-1%,0.1
CN(CC(=O)Nc1cccc(F)c1)C(=O)CC1CCCC1,3%,-0.4
COC(=O)Nc1cccc(OS(=O)(=O)C[C@]2(OC)CCOC2)c1,-3%,0.37
COc1cccc([C@H](NC2CCNCC2)c2cc(F)ccc2OC)c1,-1%,0.15
COc1c(C#N)ccc(=O)n1Cc1nc(C(F)(F)F)cs1,-8%,1.43
CCN(C)C1(CNC(=O)[C@H]2CC[C@@H](O)CC2)CCCCC1,2%,-0.28
COC[C@@H]1C[C@@H](OC)CN1C(=O)c1cc(C)on1,-1%,0.16
N#Cc1cc(N2CCC[C@H]2CCc2ccccn2)ccn1,-18%,2.22
CN1CCN([C@@H]2COC3(C2)CN(C(=O)c2ccc4ccccc4n2)C3)CC1,-15%,2.32
O=C(NC1(CO)CC1)C1CC12CCOc1ccccc12 (stereo unspecified),-9%,1.69
O=C(NCc1cccnc1)[C@]1(F)CCCN(S(=O)(=O)c2ccc3c(c2)CCC3)C1,-21%,1.84
CO[C@H]1CCN(c2ccc(C(=O)NCCc3cccs3)cc2)C1,-17%,2.13
CCc1noc(CN(C)S(=O)(=O)c2cncc(Cl)c2)n1,-8%,1.14
CN(CC#N)C(=O)C1(C2CC2)CCOCC1,-12%,1.47
O=C(O)C[C@H]1CN(C(=O)COCC2CC2)CCO1,0%,0.07
CC(=O)N1CC(OCC(=O)N2CCN(c3ccccc3)[C@@H](C)C2)C1,-15%,3.07
OC1CC(Nc2ncnc3c(F)cccc23)C1n1cccn1 (stereo unspecified),-9%,1.63
O=C(NCC1CC1)C1CN(C(=O)c2cccc(Cl)c2)CC1c1cccc(C(F)(F)F)c1 (stereo unspecified),-13%,1.8
COCC(NCC(=O)N1C(C)CCCC1C)c1ccccc1 (stereo unspecified),-4%,0.61
COc1ccc(NS(=O)(=O)c2cc(NC(=O)c3ccccc3NS(=O)(=O)c3cc(C)ccc3C)ccc2C)cc1,-3%,0.39
